Experimental data as given in paper PMC12040169 (PLOS Biology, 2025).
The list shows a part of the results.

Test system: T1, C. trachomatis L2/434/Bu expressing GFP (CTL2-GFP)
T1 construct: L2/434/Bu GFP intracellular growth in HeLa cells
Set-up: species or system HeLa; C. trachomatis total inclusion area by high-content imaging, normalised to DMSO
Details: total inclusion area; 28.5 h, 10 µM; inhibitor
Outline: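 High-content imaging followed the bulk GFP/resorufin measurement: fixed, Hoechst-stained cells were scored for GFP inclusions and host nuclei per well. Total inclusion area and count served as growth proxies, nuclei number as the viability proxy. MIC calculation matched the bulk assay.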

Compared with `CCCCc1c(O)[nH]c2nc3ccccc3n2c1=O` [CBK287875], `CC(CC(=O)NCC1(C)COC1)n1cnc2ccccc21` (stereo not shown) [CBK281755] is higher in “% of control remaining” value: 97.6194 for the first, 105.836 for the second.

Compared with `CCC1c2cccn2CCN1Cc1cncn1CC` (stereo not shown) [CBK283012], `CCOC(=O)C1CCCN(C(=O)Cn2cnc(-c3cccs3)cc2=O)C1` (stereo not shown) [CBK304210] is higher in “% of control remaining” value: 79.3365 for the first, 101.572 for the second.

First: CCN(CC)C(=O)CC1SC(NCC2CCCCC2)=NC1=O (stereo not shown) [CBK067923]
Second: CC(C)(CNC(=O)Cn1cc(C(=O)NC2CCCCC2)ccc1=O)c1ccccc1F [CBK286099]
The “% of control remaining” value of the first is lower: 72.113 for the first, 94.1008 for the second.

First: COc1ccc(C(C)C)cc1-c1cnc2nc(NS(C)(=O)=O)ccc2c1 [CBK085672]
Second: COc1cc(-c2nc(N)cc3cccnc23)cc(OC)c1OC [CBK061892]
The “% of control remaining” value of the first is higher: 96.1358 for the first, 81.0368 for the second.

Going from `c1ccc(CCn2nnnc2CN2CCN(c3ccccc3)CC2)cc1` [CBK069271] to `COc1ccccc1CC(=O)N1[C@H](Cc2ccccc2)C[C@@H]2NCCCCC[C@H]21` [CBK285978], the “% of control remaining” value rises from 80.6436 to 107.532.

Compared with `O=C(c1ccco1)c1coc2ccc(O)cc12` [CBK115570], `O=C(Nc1cccnc1)c1cnc2cc(Cl)ccc2c1O` [CBK107353] is lower in “% of control remaining” value: 108.842 for the first, 107.588 for the second.

First: Oc1cccc(-c2cc(CC3(NCc4ccc(F)cc4)COC3)no2)c1 [CBK289646]
Second: Cc1c(NC(=O)c2ccc([N+](=O)[O-])o2)cccc1-c1nc2ccccc2s1 [CBK263051]
The “% of control remaining” value of the first is higher: 106.239 for the first, 80.8099 for the second.

Going from `Nc1ccccc1Sc1ncccc1C(F)(F)F` [CBK093758] to `Nc1ccccc1Sc1cc(C(F)(F)F)ccn1` [CBK093761], the “% of control remaining” value falls from 111.474 to 104.38.

First: c1c2c(cc3sc(N4CCCCC4)nc13)OCCO2 [CBK287497]
Second: c1ccc2sc(SCCN3CCCCC3)nc2c1 [CBK016366]
The “% of control remaining” value of the first is lower: 82.5692 for the first, 113.489 for the second.

Going from `Nc1nonc1-n1nnc(C(=O)N/N=C/c2ccc([N+](=O)[O-])cc2)c1-c1ccccc1` [CBK261992] to `O=c1cc(-c2ccccc2)nc(SCc2nc(-c3cccs3)no2)[nH]1` [CBK268416], the “% of control remaining” value falls from 96.8751 to 78.4274.

First: CC(NC(=O)c1c(Cl)c(Cl)c(Cl)c(Cl)c1C(=O)O)c1cccs1 (stereo not shown) [CBK264722]
Second: Cc1c(NC(=O)CSCc2ccc(Cl)cc2Cl)cccc1C(=O)O [CBK131704]
The “% of control remaining” value of the first is lower: 105.369 for the first, 112.703 for the second.

First: CNc1snc(N2CCOCC2)c1C#N [CBK011453]
Second: CCOC(=O)c1sc2nc(C(C)N3CCOCC3)[nH]c(=O)c2c1C (stereo not shown) [CBK305862]
The “% of control remaining” value of the first is higher: 92.1488 for the first, 62.7283 for the second.

First: Cc1nn(C)c(C)c1CCC(=O)N1CCc2ncc(Cl)cc2C1 [CBK284851]
Second: O=C(Cc1ccc(Cl)c(Cl)c1)N1CCN(c2ncccn2)CC1 [CBK144497]
The “% of control remaining” value of the first is lower: 94.5164 for the first, 104.911 for the second.

Going from `O=S(=O)(NC(c1c[nH]c2ccccc12)C(Cl)(Cl)Cl)c1ccccc1` (stereo not shown) [CBK263279] to `O=C(NC(=O)N1CCC2(C1)NCCc1c2[nH]c2ccccc12)c1ccccc1` (stereo not shown) [CBK046985], the “% of control remaining” value rises from 76.8476 to 102.102.

Compared with `CC1(C)CC(=O)C2=C(C1)Nc1nn(-c3ccccc3)c(O)c1C2c1cccs1` (stereo not shown) [CBK266333], `CC(=O)[C@H]1C[C@@H](CC(=O)NCc2csc(-c3ccccc3)n2)C1(C)C` [CBK092335] is lower in “% of control remaining” value: 126.056 for the first, 93.6189 for the second.

Compared with `COC(=O)CCCNS(=O)(=O)c1ccc([N+](=O)[O-])cc1` [CBK261172], `CNC(=O)C1CCN(S(=O)(=O)c2ccc(C(C)(C)C)cc2)CC1` [CBK051544] is lower in “% of control remaining” value: 73.9493 for the first, 59.299 for the second.

Going from `COc1cc(Nc2cncc(-c3ccc(O)cc3)n2)c(Cl)cc1C(=O)NCC1CCCO1` (stereo not shown) [CBK126468] to `O=C1CC(c2nc(-c3ccncc3)no2)CN1c1ccc2c(c1)OCO2` (stereo not shown) [CBK288583], the “% of control remaining” value rises from 68.3223 to 111.876.

Going from `CN(C)c1cccc(Nc2ccc(/C=C/c3ccccc3)cn2)c1` [CBK036984] to `Cc1c(C(=O)NC(C)c2ccncc2)oc2c(F)cccc12` (stereo not shown) [CBK282105], the “% of control remaining” value rises from 64.186 to 75.5139.

Compared with `CCCC/C=C/c1cn2ccnc2c(NCCc2cccnc2)n1` [CBK066235], `CC(=O)Nc1ccc(C(=O)CSc2nnc(C)o2)cc1` [CBK267851] is lower in “% of control remaining” value: 123.569 for the first, 91.1802 for the second.

Going from `CC(=O)N1CC2(CCCC2)c2c(F)cccc21` [CBK306339] to `O=C(NCCO)c1ccc(CSc2nc3sc4c(c3c(=O)[nH]2)CCCC4)cc1` [CBK263522], the “% of control remaining” value rises from 71.5407 to 97.9692.
